Test results from patent US20200157220A1 (Merck Sharp & Dohme, published 2020).

Biological target: T1, human CTLA4 expressed on cells (hCTLA4-overexpressing Jurkat JE6.2.11 cells); hCTLA4-overexpressing CHO-K1 … (human, UniProt P16410 36-223)
T1 construct: The construct expressed on the cells is not described further; also called huCTLA-4+ CHO-K cells; CTLA-4+ CHO-K1 cells
T1 sequence: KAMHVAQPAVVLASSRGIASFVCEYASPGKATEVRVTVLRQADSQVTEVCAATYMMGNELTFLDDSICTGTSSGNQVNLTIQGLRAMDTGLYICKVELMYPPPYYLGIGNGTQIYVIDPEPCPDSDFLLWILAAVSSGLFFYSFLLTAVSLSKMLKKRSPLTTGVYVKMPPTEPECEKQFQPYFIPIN
Assay: competition flow cytometry (cFACS) on hCTLA4-overexpressing CHO-K1 cells against a fixed concentration (10xEC30) of FITC-labelled hCD80-hFc-HIS6; MedianFI (FITC) of bound ligand

- IC50 (read off the curve): ~6 nM
B1: F023700912 (11F01 (E1D,L11V,A14P,Q45R,A74S,K83R,V89L,M96P,Q108L)-35GS-11F01 (L11V,A14P,Q45R,A74S,K83R,V89L,M96P,Q108L)-35GS-ALB 11002-A) (VHH)
chain: DVQLVESGGGVVQPGGSLRLSCAASGGTFSFYGMGWFRQAPGKEREFVADIRTSAGRTYYADSVKGRFTISRDNSKNTVYLQMNSLRPEDTALYYCAAEPSGISGWDYWGQGTLVTVSSGGGGSGGGGSGGGGSGGGGSGGGGSGGGGSGGGGSEVQLVESGGGVVQPGGSLRLSCAASGGTFSFYGMGWFRQAPGKEREFVADIRTSAGRTYYADSVKGRFTISRDNSKNTVYLQMNSLRPEDTALYYCAAEPSGISGWDYWGQGTLVTVSSGGGGSGGGGSGGGGSGGGGSGGGGSGGGGSGGGGS[sequence of about 120 residues omitted]
notes: Trivalent Nanobody construct, bivalent for CTLA4 and monovalent for serum albumin; also called CTLA4 Nab
